Reference: patent US20240174733A1 (published 2024)

Key:
[1] = molecular target: T1, activin A (UniProt P08476 311-426); test: Biacore SPR
T1 chain: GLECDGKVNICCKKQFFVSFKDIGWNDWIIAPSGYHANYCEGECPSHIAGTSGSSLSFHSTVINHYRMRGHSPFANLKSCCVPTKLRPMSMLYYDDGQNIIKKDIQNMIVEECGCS

[2] = molecular target: T2, GDF11 (UniProt O95390 299-407); test: Biacore SPR
T2 chain: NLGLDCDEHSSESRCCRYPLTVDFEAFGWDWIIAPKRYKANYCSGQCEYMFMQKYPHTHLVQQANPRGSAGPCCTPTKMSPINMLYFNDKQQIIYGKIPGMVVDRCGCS

- Kd [1]: 0.005 nM
- Kd [2]: 9.96 nM
B1: ActRIIA-hFc (Fc fusion)
chain: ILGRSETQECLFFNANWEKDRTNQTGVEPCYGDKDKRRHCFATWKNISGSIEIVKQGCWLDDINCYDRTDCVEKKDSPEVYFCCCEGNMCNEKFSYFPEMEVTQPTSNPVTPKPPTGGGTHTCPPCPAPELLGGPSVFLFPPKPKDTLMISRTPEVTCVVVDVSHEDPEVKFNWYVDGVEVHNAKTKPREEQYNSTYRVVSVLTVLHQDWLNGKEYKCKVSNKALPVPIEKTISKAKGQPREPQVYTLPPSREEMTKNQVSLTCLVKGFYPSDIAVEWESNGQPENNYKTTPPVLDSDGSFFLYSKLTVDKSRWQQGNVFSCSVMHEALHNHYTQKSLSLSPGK
